Results taken from the supplement of paper PMC11125491.
± gives the standard deviation of the averaged measurements. Growth of baker's yeast expressing single-residue variants of Pneumocystis jirovecii dihydrofolate reductase in 8.8 or 44 µM methotrexate (about 75% and 90% inhibition of the wild type). Selection coefficient per generation; 0 = like wild type, above 0 = less sensitive, below 0 = more sensitive or loss of function. No active / inactive call per row; the paper calls resistant above 0.220 (8.8 µM) or 0.243 (44 µM) together with a significance test. At 44 µM about 15% of codons end with one read or none, so the lowest values are floors (replicate rank correlation 0.74; 0.94 at 8.8 µM).

B1: UniProt A0EPZ9; numbered along this chain (parent)
chain: MDWQKSLTLIVALTLSRGIGLKNDLPWKLKSDMMFFSRVTSGLLVTRSTGQMNVVLMGRKTWESLPAHSRPLKNRINVVISRQEVLDLGGGAYHARSLDDALALLSQIYDSTSKIQLNRVFVIGGGELCKAAMEHSRLNRIIATVIHNEVDCDVFFPIDFRSSQSCLPWRKQDHSVLEAWVGSKVPQGKINENGFIYEFEMWIRDI

Variants of: B1
Test: selection coefficient against synonymous wild-type codons (log2 per generation); higher = faster growth than wild type
Conditions: with Saccharomyces cerevisiae carrying the variant on a plasmid
Experimental: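 Pooled growth of yeast carrying single-residue variants of P. jirovecii dihydrofolate reductase (own DFR1 gene intact), two passages at 30 °C, three cultures, sequenced before and after. Codons with under 15 starting reads are left out; codons of one change are averaged.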

Variant	selection coefficient against synonymous wild-type codons (log2) (methotrexate 8.8 µM)	selection coefficient against synonymous wild-type codons (log2) (methotrexate 44 µM)
MDWKKSLTLIVALTLSRGIGLKNDLPWKLKSDMMFFSRVTSGLLVTRSTGQMNVVLMGRKTWESLPAHSRPLKNRINVVISRQEVLDLGGGAYHARSLDDALALLSQIYDSTSKIQLNRVFVIGGGELCKAAMEHSRLNRIIATVIHNEVDCDVFFPIDFRSSQSCLPWRKQDHSVLEAWVGSKVPQGKINENGFIYEFEMWIRDI [Q4K]	-0.177 ± 0.093	-0.261 ± 0.06
MDWFKSLTLIVALTLSRGIGLKNDLPWKLKSDMMFFSRVTSGLLVTRSTGQMNVVLMGRKTWESLPAHSRPLKNRINVVISRQEVLDLGGGAYHARSLDDALALLSQIYDSTSKIQLNRVFVIGGGELCKAAMEHSRLNRIIATVIHNEVDCDVFFPIDFRSSQSCLPWRKQDHSVLEAWVGSKVPQGKINENGFIYEFEMWIRDI [Q4F]	-0.402 ± 0.14	-0.147 ± 0.083
MDWLKSLTLIVALTLSRGIGLKNDLPWKLKSDMMFFSRVTSGLLVTRSTGQMNVVLMGRKTWESLPAHSRPLKNRINVVISRQEVLDLGGGAYHARSLDDALALLSQIYDSTSKIQLNRVFVIGGGELCKAAMEHSRLNRIIATVIHNEVDCDVFFPIDFRSSQSCLPWRKQDHSVLEAWVGSKVPQGKINENGFIYEFEMWIRDI [Q4L]	-0.217 ± 0.099	-0.223 ± 0.13
MDWIKSLTLIVALTLSRGIGLKNDLPWKLKSDMMFFSRVTSGLLVTRSTGQMNVVLMGRKTWESLPAHSRPLKNRINVVISRQEVLDLGGGAYHARSLDDALALLSQIYDSTSKIQLNRVFVIGGGELCKAAMEHSRLNRIIATVIHNEVDCDVFFPIDFRSSQSCLPWRKQDHSVLEAWVGSKVPQGKINENGFIYEFEMWIRDI [Q4I]	-0.449 ± 0.068	-0.243 ± 0.0095
MDWGKSLTLIVALTLSRGIGLKNDLPWKLKSDMMFFSRVTSGLLVTRSTGQMNVVLMGRKTWESLPAHSRPLKNRINVVISRQEVLDLGGGAYHARSLDDALALLSQIYDSTSKIQLNRVFVIGGGELCKAAMEHSRLNRIIATVIHNEVDCDVFFPIDFRSSQSCLPWRKQDHSVLEAWVGSKVPQGKINENGFIYEFEMWIRDI [Q4G]	-0.128 ± 0.077	-0.0968 ± 0.053
MDWDKSLTLIVALTLSRGIGLKNDLPWKLKSDMMFFSRVTSGLLVTRSTGQMNVVLMGRKTWESLPAHSRPLKNRINVVISRQEVLDLGGGAYHARSLDDALALLSQIYDSTSKIQLNRVFVIGGGELCKAAMEHSRLNRIIATVIHNEVDCDVFFPIDFRSSQSCLPWRKQDHSVLEAWVGSKVPQGKINENGFIYEFEMWIRDI [Q4D]	0.0408 ± 0.014	0.106 ± 0.036
MDWHKSLTLIVALTLSRGIGLKNDLPWKLKSDMMFFSRVTSGLLVTRSTGQMNVVLMGRKTWESLPAHSRPLKNRINVVISRQEVLDLGGGAYHARSLDDALALLSQIYDSTSKIQLNRVFVIGGGELCKAAMEHSRLNRIIATVIHNEVDCDVFFPIDFRSSQSCLPWRKQDHSVLEAWVGSKVPQGKINENGFIYEFEMWIRDI [Q4H]	-0.108 ± 0.025	-0.0372 ± 0.046
MDWEKSLTLIVALTLSRGIGLKNDLPWKLKSDMMFFSRVTSGLLVTRSTGQMNVVLMGRKTWESLPAHSRPLKNRINVVISRQEVLDLGGGAYHARSLDDALALLSQIYDSTSKIQLNRVFVIGGGELCKAAMEHSRLNRIIATVIHNEVDCDVFFPIDFRSSQSCLPWRKQDHSVLEAWVGSKVPQGKINENGFIYEFEMWIRDI [Q4E]	-0.07 ± 0.023	-0.0241 ± 0.067
